According to the supplement of paper PMC10126150:
Sequences with one replicate were seen in a single cluster, so their values are uncertain.

System: ATP
Assay: switch fluorescence ratio, 500 uM ATP over buffer (Cy3 cluster intensity, sum of 5 cycles each) (fold (ratio)); higher = stronger signal-on switching upon ATP binding; sequences stand for … in TCGTCGGCAGCGTCAGATGTGTATAAGAGACAGTTTTTTTTTTTTTTTTTTTTTTTTT…TC
Details: aptamer strand: ATP DNA aptamer (quencher-CACCTGGGGGAGTATTGCGGAGGAAGG + anchor), 100 nM annealed; ATP concentration: 500 uM; one replicate
Procedure, shortened: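 The fluorescence ratio divides summed target-cycle Cy3 intensity by summed buffer-cycle Cy3 intensity for each cluster and is averaged per switch-domain sequence. Cy3-labelled switching-strand clusters on a modified Illumina MiSeq flow-cell were annealed to 100 nM quencher-labelled ATP aptamer, then imaged in selection buffer and again after 15 min with 500 uM ATP at 22 °C. Five such cycles were run, with NaOH stripping and re-annealing between them, and clusters outside 100-1000 RFU were excluded.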
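Also: ATP exposure 15 min at 22 °C before imaging.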

| Sequence | switch fluorescence ratio |
| --- | --- |
| AATCGGAACG | 1.01 |
| AATCGGATAT | 1.03 |
| AATCGGCTGT | 1.01 |
| AATCGGGCCG | 1.06 |
| AATCGGGCTT | 0.994 |
| AATCGGGTAA | 1.01 |
| AATCGGGTAC | 0.997 |
| AATCGGTTTC | 0.988 |
| AATCGTAAAC | 1.11 |
| AATCGTGTGT | 0.922 |
| AATCGTTAGA | 0.987 |
| AATCTAGGTG | 1.29 |
| AATCTATCTC | 1.02 |
| AATGAAAACG | 0.903 |
| AATGAGCCT | 1.12 |
| AATGAGCGCG | 1.01 |
| AATGAGGAA | 0.986 |
| AATGAGGTAG | 0.93 |
| AATGCAGCAG | 0.992 |
| AATGCGCGGA | 0.979 |
| AATGCTAAAG | 1.02 |
| AATGCTGAT | 0.985 |
| AATGCTTGTA | 0.999 |
| AATGGACTGA | 1.05 |
| AATGGAGTTA | 1 |
| AATGGATGGT | 0.986 |

| Sequence | switch fluorescence ratio |
| --- | --- |
| AATGGCCACA | 0.997 |
| AATGGCGGAG | 1.01 |
| AATGGCTCA | 1.01 |
| AATGGCTGAA | 0.98 |
| AATGGGTAGC | 1.03 |
| AATGGGTAT | 0.965 |
| AATGGGTGCT | 0.984 |
| AATGGTACAA | 1.01 |
| AATGGTAGTA | 0.983 |
| AATGGTGTTT | 0.968 |
| AATGTAACGA | 1.05 |
| AATGTAACTT | 0.983 |
| AATGTACACT | 1.06 |
| AATGTATAGT | 1.03 |
| AATGTATCGG | 0.979 |
| AATGTATGTC | 0.965 |
| AATGTCTACA | 0.978 |
| AATGTGATAG | 0.983 |
| AATGTGGTTC | 0.986 |
| AATGTTTATA | 0.955 |
| AATTAAAACA | 0.994 |
| AATTAATGAA | 1.04 |
| AATTACCACA | 1.06 |
| AATTACCATA | 1.05 |
| AATTACCTTT | 1.07 |
| AATTACGG | 1.07 |

| Sequence | switch fluorescence ratio |
| --- | --- |
| AATTAGACTG | 0.969 |
| AATTAGATGA | 0.961 |
| AATTAGGGCG | 1.04 |
| AATTAGGGG | 1.02 |
| AATTAGGTGT | 1.01 |
| AATTAGTAT | 0.977 |
| AATTATAGGG | 0.968 |
| AATTATCGCA | 1.05 |
| AATTATTGC | 1.01 |
| AATTCAAAGA | 0.974 |
| AATTCACCAG | 1.09 |
| AATTCGCATG | 1.06 |
| AATTCGGGCC | 1.38 |
| AATTCGTCC | 1.07 |
| AATTCTGCAC | 1.04 |
| AATTGACATA | 1.05 |
| AATTGAGAGT | 0.993 |
| AATTGAGCTA | 1.03 |
| AATTGCAGCC | 1.07 |
| AATTGCGTTA | 0.975 |
| AATTGCTCAC | 1.05 |
| AATTGGCAGC | 0.972 |
| AATTGGCGC | 0.974 |
| AATTGGGCAA | 1.04 |
| AATTGTAAAC | 1.01 |
| AATTGTACCG | 1.02 |

| Sequence | switch fluorescence ratio |
| --- | --- |
| AATTGTATTT | 0.999 |
| AATTGTCCTC | 0.936 |
| AATTTAATCC | 1.05 |
| AATTTAATG | 0.988 |
| AATTTAGATA | 1.01 |
| AATTTAGTCA | 1.03 |
| AATTTATATG | 1.05 |
| AATTTCGAGA | 0.955 |
| AATTTCGTC | 0.94 |
| AATTTCTCTC | 0.997 |
| AATTTCTTC | 1.02 |
| AATTTTTAG | 1.06 |
| ACAAAAATG | 1.06 |
| ACAAAACCGT | 1.14 |
| ACAAAATAAT | 0.982 |
| ACAAACGATT | 1.24 |
| ACAAAGCTGC | 1.11 |
| ACAAATAAAA | 0.989 |
| ACAAATGGTG | 1.09 |
| ACAACAACGG | 1.14 |
| ACAACAAGGC | 1.08 |
| ACAACAATTA | 1.02 |
| ACAACACCGA | 1.21 |
| ACAACCAGC | 1.09 |
| ACAACCATGG | 0.976 |
| ACAACCCCC | 1.47 |

| Sequence | switch fluorescence ratio |
| --- | --- |
| ACAACCGGGA | 1.13 |
| ACAACGTTGT | 0.956 |
| ACAACTCGGT | 1.03 |
| ACAAGAGACT | 0.975 |
| ACAAGATTTG | 0.982 |
| ACAAGCGCTT | 1.04 |
| ACAAGGAGCC | 1.05 |
| ACAAGGATC | 0.997 |
| ACAAGGATTA | 1.01 |
| ACAAGGATTT | 1.01 |
| ACAAGGCGAT | 0.988 |
| ACAAGGGATC | 1 |
| ACAATACTTT | 1.13 |
| ACAATAGTT | 1.03 |
| ACAATAGTTT | 1.02 |
| ACAATGGTTC | 1.05 |
| ACAATGTTC | 1 |
| ACAATTTCCT | 1.08 |
| ACACAAAGTA | 1.06 |
| ACACAAATTT | 1.05 |
| ACACAACAGC | 1.09 |
| ACACAATTTG | 0.995 |
| ACACACGTC | 1.47 |
| ACACAGGTTT | 1.12 |
| ACACAGTTGG | 0.949 |
| ACACCAGCG | 1.23 |

| Sequence | switch fluorescence ratio |
| --- | --- |
| ACACCATCTT | 1.06 |
| ACACCGGACG | 1.16 |
| ACACCTGTAA | 0.994 |
| ACACTGCTTC | 1.07 |
| ACACTGGACA | 1.21 |
| ACACTGGATT | 1.04 |
| ACACTTGACA | 1.12 |
| ACACTTTAGG | 1.02 |
| ACAGACACGG | 1.04 |
| ACAGACTTGG | 1.01 |
| ACAGAGCGGG | 1.01 |
| ACAGAGCTAG | 1.06 |
| ACAGAGTTGT | 1.01 |
| ACAGATCCCT | 0.961 |
| ACAGCAAACA | 1.17 |
| ACAGCCTCAA | 0.914 |
| ACAGCGAATG | 1.03 |
| ACAGCTCTAA | 1.01 |
| ACAGCTTGG | 1 |
| ACAGCTTTT | 0.982 |
| ACAGGAACAC | 1.03 |
| ACAGGAATGT | 0.939 |
| ACAGGATCTT | 0.977 |
| ACAGGCACTT | 1.11 |
| ACAGGCATC | 1 |
| ACAGGGAATG | 1.03 |

| Sequence | switch fluorescence ratio |
| --- | --- |
| ACAGGGTTGC | 1 |
| ACAGGTGGTA | 1.33 |
| ACAGTAATTC | 1.27 |
| ACAGTACTGC | 1.16 |
| ACAGTACTTA | 1.31 |
| ACAGTATCTG | 1.03 |
| ACAGTCAGGC | 1.1 |
| ACAGTGACGG | 1.04 |
| ACAGTTGAGG | 0.998 |
| ACATAAATTG | 1.04 |
| ACATAACGGC | 1.02 |
| ACATAACTGC | 1.09 |
| ACATAATGGC | 1.1 |
| ACATAATTGT | 1 |
| ACATACAGTA | 1.26 |
| ACATACTACT | 1.27 |
| ACATAGAACT | 1.05 |
| ACATAGATAA | 1.03 |
| ACATAGTTGC | 0.993 |
| ACATCAAAT | 1.05 |
| ACATCAAATC | 1.04 |
| ACATCATTCA | 1 |
| ACATCATTCG | 1.07 |
| ACATCGATTT | 1 |
| ACATCGCGTC | 1.12 |
| ACATCTCGGC | 0.993 |

| Sequence | switch fluorescence ratio |
| --- | --- |
| ACATCTGTCT | 1.05 |
| ACATCTGTTC | 1.03 |
| ACATGAAAAT | 1.03 |
| ACATGAAACA | 1.06 |
| ACATGGCGAG | 0.961 |
| ACATGGTAAA | 0.969 |
| ACATTAAATT | 1.07 |
| ACATTATCTG | 1.11 |
| ACATTCATTT | 0.979 |
| ACATTCCATC | 1.12 |
| ACATTCGGCG | 1.04 |
| ACATTGGATC | 1.01 |
| ACATTGGGA | 1.01 |
| ACATTGTACC | 1.14 |
| ACATTTGAGA | 0.956 |
| ACATTTGCGG | 0.995 |
| ACATTTGGAG | 1.02 |
| ACCAAAATAA | 1.09 |
| ACCAACTTTT | 1.23 |
